Laboratory results taken from PubChem BioAssay AID1346428 (National Center for Advancing Translational Sciences (NCATS), 2018).
About 1,200 (2.5%) of roughly 48,000 compounds were called active. Another 2% or so got no clear call; they are omitted.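 How the source made its calls: active means activation of at least 60% and not above a set upper limit (about 1 call in 100 departs from these limits); inconclusive means activation of 40% to 60%, or above that upper limit; inactive means activation under 40%.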 The list shows a part of the results.

target: Probable G-protein coupled receptor 32 (Homo sapiens) (UniProt O75388); test: qHTS for Agonists of Human Resolvin D1 Receptor DRV1; settings: CHO-K1 GPR32 beta-arrestin PathHunter luminescence, 90 min; at 76.9 µM; stronger effect = higher value; zero percent set by DMSO-only wells
Procedure, shortened: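 Using DMSO wells as EC0, agonist-induced signal was taken as chemiluminescence from beta-Gal reconstituted upon beta-arrestin recruitment to GPR32 in CHO-K1 cells after 90 min compound treatment.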

Chain of UniProt O75388 (O75388 whole entry, looked up): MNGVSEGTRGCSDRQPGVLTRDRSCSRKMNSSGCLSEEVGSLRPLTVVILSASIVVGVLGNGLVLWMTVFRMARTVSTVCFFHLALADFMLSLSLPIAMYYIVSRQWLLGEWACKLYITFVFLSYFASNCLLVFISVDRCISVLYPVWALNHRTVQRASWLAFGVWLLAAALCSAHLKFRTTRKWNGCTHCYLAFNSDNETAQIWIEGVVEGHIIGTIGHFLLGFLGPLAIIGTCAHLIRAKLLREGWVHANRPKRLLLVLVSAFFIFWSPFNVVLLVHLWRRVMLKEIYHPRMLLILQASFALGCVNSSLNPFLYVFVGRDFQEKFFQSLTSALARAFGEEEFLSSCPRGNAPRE

activation, inactive:
Cc1nnc(NC(=O)CSc2nc3c([nH]c4ccccc43)c(=O)n2-c2ccccc2)s1 -11.6%, COc1ccc(C2CC(=O)c3cc(-c4nc(-c5cccc([N+](=O)[O-])c5)cs4)c(=O)n(-c4ccc(C)c(C)c4)c3C2)cc1 (stereo not drawn) 2.25%, CC(C)Oc1ccc(C(=O)Nc2ccc3c(c2)CCCN3C(=O)c2cccs2)cc1 -13.4%, CCC(Sc1nc2ccccc2c2nc(CCn3cncc3C)nn12)C(=O)Nc1cccc(OC)c1 (stereo not drawn) -16%, O=C(Cn1cc(SCc2ccc(C(F)(F)F)cc2)c2ccccc21)N1CCCCCC1 -35.2%, COc1ccc(Cn2c(CNC(=O)c3ccc(N(C)C)cc3)nc3cccnc32)cc1 -17.3%, CCC1CCCCN1CCCNC(=O)CN1C(=O)c2cccnc2Oc2ccc(Cl)cc21 (stereo not drawn) 4.6%, Cc1sccc1Br -7%, Fc1ccc(Nc2nc3ccccc3c3nncn23)c(Cl)c1 6.97%, Cc1cc(C)c2nc(N3CCCC(C(=O)NCc4cccc(Br)c4)C3)sc2c1 (stereo not drawn) -3.04%, COc1ccc(CCNC(=O)c2ccc(Cn3c(=O)c4ccccc4n(Cc4cc(C)ccc4C)c3=O)cc2)cc1OC 11.4%, Cc1ccc2oc(=O)c3cc(C(=O)Nc4ccc(F)cc4F)sc3c2c1 -1.41%, CC(C)CSc1nnc(-c2ccccc2)c(-c2ccccc2)n1 -11.8%, Cc1ccc(NC(=O)c2oc3ccc(S(=O)(=O)N4CCCCCC4)cc3c2C)cc1Cl 1.82%, CCOC(=O)c1ccc(N2CCN(c3ccccc3F)CC2)c(NC(=O)Nc2ccc(Cl)c(Cl)c2)c1 -17%, Cc1ccc(Cl)cc1NC(=O)CN1C(=O)c2cccc3cccc1c23 25.2%, COc1ccc(C)c2sc(N(Cc3cccnc3)C(C)=O)nc12 -14.9%, CCCN1C(=O)c2[nH]nc(-c3ccccc3O)c2C1c1ccc(OCc2ccccc2)c(OCC)c1 (stereo not drawn) 9.69%, COc1ccc(-c2nc3ccccc3s2)cc1NC(=O)COc1ccccc1C 1.68%, COc1ccccc1OCCn1c(NC(=O)c2ccc(Cl)cc2)nc2ccccc21 -10.8%, CCc1ccc(NC(=O)C2CCC(CNS(=O)(=O)c3ccc4c(c3)CC(C)N4C(C)=O)CC2)cc1 (stereo not drawn) 19.3%, Cc1ccccc1-c1nc(CS(=O)CC(=O)N2CCN(c3cc(Cl)ccc3C)CC2)c(C)o1 (stereo not drawn) -4.18%, CCCCC(=O)Nc1cccc(-c2nc3ncccc3o2)c1C 46.8%
